# In the supplement of paper PMC11417369:
# The list shows a part of the results.
# Tested on: PfHDP1 homeodomain (GST-tagged)
# Test: gcPBM binding intensity (ln(normalized median fluorescence intensity)); higher = stronger DNA binding
# How it was run: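 After 1 h on an Agilent 4 × 180k array of primer-extended double-stranded 36-bp intergenic genomic probes and negative controls, bound GST-tagged P. falciparum DNA-binding domains were detected with Alexa488 anti-GST antibody and scanned at 488 nm. The domains had been expressed in E. coli, and binding took place in 1× PBS with 1% milk, 0.2 mg/ml BSA, 0.5% salmon testes DNA and 0.03% Triton X-100. Binding intensity is the highest Masliner-normalised natural-log median intensity across replicate spots of either probe orientation.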
row,Sequence,gcPBM binding intensity (ln)
1,ATATATACATTTCTATGTACATATGTATATATGTAT [XGTACX_site1522],6.54
2,ATAAAAGAAAACAATAGTACTTTAGTTTTTCTTTTT [XGTACX_site5686],6.14
3,TTAATCTAGAGAAATTGTACATTTTATTAACACAAT [XGTACX_site1190],5.97
4,AAATAACTCATGGGTTGTACTTAAAAAAAAAAAGAT [XGTACX_site4168],6.76
5,ATTTTTTTTTTTTGTTTTTTCTTACAAATTAAATGA [CACACA_negctrl_site1457],6.39
6,AAACCTTTAGAAAATCGTACAAAACATAACCACCTA [XGTACX_site1098],6.7
7,CTCTTGTCATTTTGCACACACACATGGATAGGTTAT [CACACA_site5655],10.8
8,TTTTTTTTTTTTCACGTGCACTATACATATAAGTAA,8.41
9,AACACATACAGACACACACACAAAAAAAAAAAAAAA [CACACA_site6322],6.74
10,ACCCAATTTTTTAGTACACACATATAAATATATAAA [CACACA_site4944],6.86
11,TAAAACATGTTTTTATATATTATTATTATATTTATA [XGTACX_negctrl_site8],6.1
12,TATATTTGGAAACACACACACAAAAAAAAAAAAAAA [CACACA_site2474],6.51
13,ATATTTTCTAATCAATGTACTTATTCTACACATTAA [XGTACX_site5774],6.95
14,ACTACATAAAATGACACACACAAACTTTAAAATTTA [CACACA_site3474],6.42
15,CACCTGCACGATTGCACACAAATATGTTTTGAAGAT [CACACA_site2103],10.2
16,ATATTTTATGTAAAGGTGCAAAACAACATTAAAAAA,9.97
17,ATATGACTTAAATATGTGCGCATTTTTTTTTTTTTT,7.36
18,AGGATATATAATTAAGTGCATTAATTCAAAATAAAA [GTGCAC_site9702],9.67
19,CATATATAAATCATGTGTACGTATTGAGTATCTACT [XGTACX_site6278],6.56

row,Sequence,gcPBM binding intensity (ln)
1,ATAAGATATGTATATACACACATTTATTTACCTATA [CACACA_site7521],6.67
2,TTATTATTTTATAACACACACATATATATTATATCT [CACACA_site1434],6.8
3,CTTTAAACCCTGAACACACACAAATACAGACAAAAA [CACACA_site247],6.99
4,AATATTGTATATAATAAACACACAATATTAAAAATA [CACACA_site8262],6.45
5,GTATTTTAATATAAATGTACATAAATGTTATATATA [XGTACX_site3475],6.4
6,TACACAAGAAAATTCACACACACACGGATATTTATA [CACACA_site7765],6.69
7,GTATCGAAGTAAATACGTACTTAAATATGTTTAAAA [XGTACX_site1353],6.14
8,ACGTACTGCCCTAAAGTGCATATATAATATAAACGA [GTGCAC_site9911],8.07
9,TTTTATTTGACAAGCACACACTTAAATATATTTATA [CACACA_site7557],6.88
10,ACATAAGAAGTTATATGTACATATATTTTTTAAATT [XGTACX_site8078],6.33
11,AAAACATTTTCAAACTGTACACATAGAACTATGCAT [XGTACX_site4087],6.46
12,CATTAATAACAAAGTTGTACAAGATAATATTATATG [XGTACX_site6832],7.42
13,ATCTAGCCATTTTTTAGTACACATAAATAAAAAAAA [XGTACX_site1257],6.4
14,TAAACAAAATATATATGTACATATATATATATATAT [XGTACX_site6502],9.28
15,AAATTCTTAACCCAACGTACATATAATAAATTCTTA [XGTACX_site8538],6.12
16,TAAACCAAACAATTATGTATAAGATGTATATATATA [GTGCAC_negctrl_site438],8.04
17,AAAAAAAAAAATATATTATTTTACTTGTTTATTTTA [CACACA_negctrl_site1447],5.8
18,AAAAAGAAGAATATATGTACACAAAATTTATGAGTT [XGTACX_site8609],6.45
19,CATTATAAGAAACACACACACATATATATATATATA [CACACA_site1051],9.43

row,Sequence,gcPBM binding intensity (ln)
1,TTTTTTTTTTCTTAGGTGCAAAAAATAAGTATATAT [GTGCAC_site9394],9.72
2,AAAAAAAAAAGAACCCGTACATAAATAATATATATA [XGTACX_site164],6.87
3,TATAGTTATATTAGAAGTACTTCATTTTAACATATT [XGTACX_site7101],6.08
4,GAAACATAAAAATATATTGAAATAGTATCATGGGTA [CACACA_negctrl_site352],6.54
5,AAAAAAAAAAAAGAAACACACACATTTGTATATAAT [CACACA_site8648],6.64
6,TAAAAAATAAAATAATGTACATATGAATTATATATT [XGTACX_site8398],6.44
7,TTTTTTTTGTATTAATGTACATATAACTTTTTTTTT [XGTACX_site7903],6.29
8,TTAATTACATGTTATTGTACGTATTTTCTATCTATC [XGTACX_site844],6.45
9,GGTAGGTGGATATATACACACATATATTATAGATAT [CACACA_site7021],7.09
10,ATCGAGAAAAATAAAATAATACAATTTCTTTAAATA [XGTACX_negctrl_site162],5.88
11,CACAGATATATACATACACACATATATACACATATA [CACACA_site6323],6.94
12,ATTCCCTTAAGAAACTGTACAAAACTTTCTTCGATT [XGTACX_site775],6.51
13,GTGTGTGTATATATTTGTACATATATTTAAACATAT [XGTACX_site1074],7.66
14,TATACATAAATTATATGTACTGAAAATACATAATTA [XGTACX_site3626],5.98
15,GTTTTAAAATTAAATATTATGGCATAATTCAAGAAA [GTGCAC_negctrl_site721],6.42
16,AAAATTTTTTAACACTGTACTTGTAATATTAAAACT [XGTACX_site8369],7.02
17,AAATGCGCCATGTGTACACATATATATATATATATA [CACACA_site4649],9.4
18,TTAAATAAGTTCTTCACACATATATATATATATATA [CACACA_site4742],9.41
19,TACATATATAAAAATTGTACACTTCATAAGAAAAAA [XGTACX_site4347],7.56
